First the molecules themselves.
B1: LINE1-mini (parent)
chain: GGCAGAGCUCAACACAGCGUGGCAAAGUGGCUGUGGCUAGACUGCC

Read counts are not given, so values of variants with three or more changes are uncertain.

The variants in this series derive from B1. Nature of the series: self-cleavage, relative activity (ratio to wild type); higher = more cleavage; in vitro, sequencing; the parent is a self-cleaving ribozyme.
As for G21U G29A G35U C42G, the self-cleavage came to 0.03.

Regarding G21C U32G G36A, the self-cleavage was found to be 0.05.

With G22C A26C G33U, the self-cleavage turned out to be 0.04.

As for G21U G27C G30A, the self-cleavage came out at 1.28.

Consider G22A G33A C37G C46A, for which the self-cleavage was determined as 0.04.

G22A G27C C31G A41U: the self-cleavage worked out at 0.04.

Consider G21U G27A G30U C31A, for which the self-cleavage came out at 0.67.

Consider G21C A25G G33C G35A G40C G44A, for which the self-cleavage came out at 0.01.

On to G21U U28A G29A, for which the self-cleavage came out at 0.53.

Regarding G21A G30A G40C U43G, the self-cleavage was found to be 1.07.

As to G21C G29A G35U, the self-cleavage stood at 1.02.

For the variant G21U G29C G30U, the self-cleavage amounted to 0.31.

Consider G21U C23G G30A, for which the self-cleavage worked out at 1.26.

For G22C A25U A39G G44A, the self-cleavage stood at 0.33.

As to G21C A26C U28A C37U C42U, the self-cleavage amounted to 0.01.

For the variant G22A A24G C37A, the self-cleavage is 0.02.

In the case of G21U G35A C42U, the self-cleavage was 0.01.

G21C C23U A41G: the self-cleavage amounted to 0.09.

Regarding G21U A25G G33C G36U U38C, the self-cleavage worked out at 0.02.

G21U A26C A41C: the self-cleavage was determined as 0.02.

For G21U C23A G44A, the self-cleavage was found to be 0.42.

For the variant G21U A25G G27U G40C A41U, the self-cleavage stood at 0.1.

On to G22A A26C G44A, for which the self-cleavage stood at 0.34.

Turning to G21C G30A C31U U43G C45A, the self-cleavage worked out at 0.03.

For the variant G22C C37A U38G, the self-cleavage came out at 0.01.

Consider G21C G27A G30A G36A C45G, for which the self-cleavage turned out to be 0.05.

On to G21C A24G A26U U28G C42G, for which the self-cleavage was 0.02.

Consider G22C A26G G30U C31A U34G, for which the self-cleavage is 0.05.

For G21U C31A C45U, the self-cleavage was determined as 0.47.

As to G22A C37U A39U U43A, the self-cleavage is 0.01.

On to G21U C23U G40A A41G, for which the self-cleavage was determined as 0.04.

Consider G21C G40U G44C, for which the self-cleavage worked out at 0.08.

For the variant G21A G36A C42G, the self-cleavage was 0.07.

For G21U U32G G44U C45G, the self-cleavage came out at 0.07.

G21U G29C U38C G44U: the self-cleavage is 0.03.

As to G22A G29A G35C A39G, the self-cleavage was 0.04.

In the case of G21A G36U A39U C42A, the self-cleavage is 0.03.

With G22C C31U A39C C45U, the self-cleavage came out at 0.02.

In the case of G21U A26U A41C U43G, the self-cleavage was 0.44.

For G22A A25G G44A, the self-cleavage was 0.16.

Regarding G21U A41G U43G C45A, the self-cleavage was 0.06.

On to G21C U28C C37A, for which the self-cleavage was determined as 0.01.

In the case of G21C A25C G27U G33C, the self-cleavage was 0.02.

Consider G22A G27C C37U G40C G44A, for which the self-cleavage amounted to 0.01.

G21C C37A G44U: the self-cleavage was determined as 0.03.

Consider G21C C37A G44C, for which the self-cleavage was 0.07.

On to G21U G22A C46G, for which the self-cleavage stood at 1.69.

In the case of G21A G29A G40A A41G, the self-cleavage came to 0.1.

On to G21U G30C C46U, for which the self-cleavage amounted to 2.16.

With G22A A39U C46G, the self-cleavage stood at 0.63.

As for G22C A25U A26G G44C, the self-cleavage turned out to be 0.1.

On to G21U A25U C46A, for which the self-cleavage was determined as 0.65.

As to G22A A25U C46U, the self-cleavage was 1.64.

On to G21C C23A G40U, for which the self-cleavage was 0.18.

On to G22A G44U C46A, for which the self-cleavage worked out at 0.12.

For G21U C23G C42U, the self-cleavage came out at 0.82.

G22C C23A C46A: the self-cleavage came to 0.2.

G22C A25G G27U A39U: the self-cleavage was 0.38.

As to G22A U32A C45U, the self-cleavage worked out at 0.47.

For G21C U28G C37A C46U, the self-cleavage stood at 0.01.

For G21C U34A G40U, the self-cleavage was 0.01.

Turning to G22C C31A U32C C42A, the self-cleavage worked out at 0.01.

Regarding G22A C37A G40A, the self-cleavage was 0.03.

Consider G21U C23U C42U, for which the self-cleavage was 0.85.

Consider G21U G35U A41U, for which the self-cleavage came to 0.2.

As for G21A U34G G44U, the self-cleavage came to 0.

In the case of G21U G29A C37A, the self-cleavage came to 0.03.

For G22C A24U G30C, the self-cleavage came out at 0.89.

Turning to G21A G29C G30A, the self-cleavage amounted to 2.02.

Regarding G21U A24C G30U A41U G44A, the self-cleavage was determined as 0.08.

As for G22A C23A U28C, the self-cleavage is 0.33.

Consider G21U G35C U43C, for which the self-cleavage turned out to be 0.05.

With G21U A26C U43A, the self-cleavage came out at 0.06.

As for G22C C31U U34G, the self-cleavage worked out at 0.01.

Turning to G22A C37A C46G, the self-cleavage worked out at 0.04.

Take G21U C23U G30C U38C C45A: the self-cleavage came out at 0.03.

On to G21C A24U G40A A41U, for which the self-cleavage amounted to 0.25.

On to G21U G35C C46U, for which the self-cleavage came out at 0.06.

Regarding G21A G29U C31U C37U, the self-cleavage turned out to be 0.03.

For G22C C31A U38G, the self-cleavage was found to be 0.01.

Turning to G22A G29A C42G, the self-cleavage turned out to be 0.02.

In the case of G21U G30C G35C, the self-cleavage turned out to be 0.05.

With G21C A24C U43C G44U, the self-cleavage came to 0.06.

Take G22C C23A A24U: the self-cleavage came to 0.39.

G21C C23U C31G U32A: the self-cleavage worked out at 0.03.

For G21A G29U G36A C46U, the self-cleavage is 0.19.

With G22A U34A C46G, the self-cleavage amounted to 0.09.

For G22A G29U C31A, the self-cleavage is 0.35.

For the variant G21U G27A G36C C37G C45G, the self-cleavage is 0.02.

As for G22A A41U C45G, the self-cleavage came to 0.22.

Consider G22A A41U C45A, for which the self-cleavage came out at 0.36.

Consider G21U U28C U34C U38G, for which the self-cleavage came out at 0.

For G22C A39C A41G, the self-cleavage worked out at 0.03.

G22A G27A G29U G40A A41U: the self-cleavage was determined as 0.05.

Regarding G21C U34G G35C, the self-cleavage is 0.04.

For G21A G36U A39G, the self-cleavage is 0.01.

With G21U G35A U38G, the self-cleavage is 0.03.

As to G22A C23U A25C C31U, the self-cleavage amounted to 0.08.

In the case of G21C A24U A39U, the self-cleavage turned out to be 0.44.

Regarding G22A A26U G27A C31G U34A, the self-cleavage was 0.04.

For G21C A25U U43C G44U, the self-cleavage was 0.08.

As to G21U G30C G40C, the self-cleavage turned out to be 0.09.

For G22A U32C C42G, the self-cleavage is 0.13.

As to G21U U28G G35U, the self-cleavage came out at 0.06.

Regarding G21C A24U A25U U43C, the self-cleavage worked out at 0.08.

In the case of G21C A24G U34A G40U, the self-cleavage is 0.03.

For G21U G35A A39C G44A, the self-cleavage was found to be 0.08.

Regarding G21C G35A C37U G40C, the self-cleavage was determined as 0.18.

In the case of G21U A24U G27U, the self-cleavage is 1.82.

Consider G22A C31U G40A, for which the self-cleavage came to 0.03.

As to G21U C23A G35C C45U, the self-cleavage was 0.04.

On to G22A A26G G40C, for which the self-cleavage was found to be 0.04.

In the case of G22A A26G G40U, the self-cleavage was 0.15.

With G21U G40C C45U, the self-cleavage is 0.01.

As to G22A G36A C42A, the self-cleavage is 0.09.

For the variant G21C A26C G27U, the self-cleavage was determined as 0.99.

For the variant G21U U28A A41U, the self-cleavage is 0.27.

Take G21C G30U U38C C46A: the self-cleavage amounted to 0.25.

G22C C23U C45U: the self-cleavage stood at 0.56.

On to G21C C23G C45G C46G, for which the self-cleavage came to 0.26.

As for G21A U34C G44A, the self-cleavage amounted to 0.06.

For G21A U38A A39G, the self-cleavage is 0.22.

Consider G22C A39U C45U, for which the self-cleavage was 0.61.

Consider G22C C37G A39G, for which the self-cleavage worked out at 0.01.

Consider G21C C23A G27A C46U, for which the self-cleavage was 2.02.

Regarding G21U G27C G33A, the self-cleavage worked out at 0.09.

G22A G36A A39G: the self-cleavage was 0.09.

Consider G21U A26U C42G, for which the self-cleavage was 0.07.

For G21U A24C A41C, the self-cleavage worked out at 0.09.

Regarding G22C C23U A24C C37U C46U, the self-cleavage worked out at 0.03.

With G22C C23A G30C G36A, the self-cleavage amounted to 0.14.

In the case of G22C G27A A39U, the self-cleavage worked out at 1.32.

Turning to G22C A25C U34C G40U C46U, the self-cleavage is 0.1.

With G22A A25C G27A, the self-cleavage came to 0.78.

Turning to G21U C31G C46A, the self-cleavage is 0.02.

G21C C23A A26G: the self-cleavage is 0.42.

On to G22A G35U A39G, for which the self-cleavage was found to be 0.05.

Regarding G22A A25U G36U, the self-cleavage was determined as 0.02.

Regarding G21A G30U G40U C42A, the self-cleavage was 0.03.

With G21C C23G A24C U32A, the self-cleavage came to 0.01.

On to G21U G29U G36A, for which the self-cleavage stood at 0.13.

As to G22A C31A U34A G40C, the self-cleavage was found to be 0.01.

Regarding G21C G33U C37G, the self-cleavage amounted to 0.04.

Consider G21C G29C C46A, for which the self-cleavage amounted to 0.88.

With G21U A24G A25C, the self-cleavage turned out to be 1.69.

With G21C G29U A39U G40C, the self-cleavage was found to be 0.05.

As for G22A A25G C37A G44U C45G, the self-cleavage is 0.04.

On to G22C C23A G27A, for which the self-cleavage came to 0.5.

Turning to G21U G27C U28A C31A C42G, the self-cleavage is 0.04.

Turning to G21U G36U U38C, the self-cleavage came out at 0.02.

For the variant G22A U32A U34A C42A, the self-cleavage turned out to be 0.11.

As to G22C C31U C45G, the self-cleavage is 0.08.

Consider G22A A26G U28G, for which the self-cleavage was found to be 0.17.

Regarding G22C C23G A24C, the self-cleavage came to 0.28.

In the case of G21U A24G G27C C31U G36A C37A, the self-cleavage is 0.09.

For the variant G21U G33U G44U, the self-cleavage turned out to be 0.

G21U C31G G44U: the self-cleavage is 0.03.

Turning to G21U U34C G36U C42G, the self-cleavage came out at 0.14.

On to G21A G33U C45U, for which the self-cleavage is 0.07.

As for G22A A24U C31A U32C G35U G40U G44U, the self-cleavage worked out at 0.04.

Consider G21A U28G G35A A39G, for which the self-cleavage is 0.71.

Consider G21U G22C A39G, for which the self-cleavage was found to be 0.08.

With G21A G36A C42A C45A, the self-cleavage came to 0.12.

Take G22A C23U G27C U32A: the self-cleavage is 0.19.

As for G21U G22C G36A, the self-cleavage was 0.06.

G22C A25G U28G U32C: the self-cleavage came to 0.11.

As to G22A U38G C45A, the self-cleavage worked out at 0.02.
